# Test results as given in publication PMC4336329 (PLoS ONE, 2015).
# The campaign covered roughly 310,000 compounds. About 2,200 (0.71%) showed an effect of 50% or more. The effect is printed as a negative number. The list shows a part of the results.
# Biological target: human ether-à-go-go-related gene (hERG) potassium channel (human, UniProt Q12809)
# Experiment: primary screen, population patch clamp on CHO cells stably expressing hERG
# Sequence of human ether-à-go-go-related gene (hERG) potassium channel (Q12809 whole entry, looked up): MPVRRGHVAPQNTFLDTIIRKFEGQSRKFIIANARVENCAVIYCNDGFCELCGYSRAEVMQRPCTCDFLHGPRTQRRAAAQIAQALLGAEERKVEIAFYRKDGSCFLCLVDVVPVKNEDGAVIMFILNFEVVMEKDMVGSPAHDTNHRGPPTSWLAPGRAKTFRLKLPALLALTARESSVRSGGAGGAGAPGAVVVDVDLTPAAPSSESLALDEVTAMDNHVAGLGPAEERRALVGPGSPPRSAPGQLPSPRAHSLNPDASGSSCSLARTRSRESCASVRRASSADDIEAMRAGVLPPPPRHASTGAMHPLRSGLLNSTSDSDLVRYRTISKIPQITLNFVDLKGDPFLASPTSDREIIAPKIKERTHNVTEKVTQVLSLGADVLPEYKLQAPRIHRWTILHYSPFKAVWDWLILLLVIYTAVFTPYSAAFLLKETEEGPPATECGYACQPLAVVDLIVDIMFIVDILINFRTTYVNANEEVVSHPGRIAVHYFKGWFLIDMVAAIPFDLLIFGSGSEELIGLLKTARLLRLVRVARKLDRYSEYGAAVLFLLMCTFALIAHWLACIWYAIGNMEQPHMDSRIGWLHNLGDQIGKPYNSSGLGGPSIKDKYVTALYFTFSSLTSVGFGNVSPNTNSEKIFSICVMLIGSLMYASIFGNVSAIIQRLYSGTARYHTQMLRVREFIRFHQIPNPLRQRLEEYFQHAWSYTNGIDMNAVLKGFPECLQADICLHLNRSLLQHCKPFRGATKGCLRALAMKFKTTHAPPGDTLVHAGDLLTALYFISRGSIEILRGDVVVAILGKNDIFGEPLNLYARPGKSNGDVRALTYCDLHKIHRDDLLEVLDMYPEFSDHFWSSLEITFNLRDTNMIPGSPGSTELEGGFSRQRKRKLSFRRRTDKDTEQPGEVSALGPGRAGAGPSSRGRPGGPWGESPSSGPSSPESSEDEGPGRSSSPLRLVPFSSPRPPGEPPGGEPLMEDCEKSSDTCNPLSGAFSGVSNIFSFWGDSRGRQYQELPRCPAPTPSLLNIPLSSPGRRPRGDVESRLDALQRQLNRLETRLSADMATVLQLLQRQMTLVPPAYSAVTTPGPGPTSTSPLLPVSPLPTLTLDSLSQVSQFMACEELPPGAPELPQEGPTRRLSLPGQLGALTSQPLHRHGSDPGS
row,Structure (SMILES),"hERG current change (%, negative = inhibition) at 1uM"
1,CNCc1ccccc1Sc1cccc2ccccc12.O=C(O)/C=C\C(=O)O,7.08%
2,COc1ccccc1NC(=O)c1ccc(C)c(S(=O)(=O)N2CCCCC2)c1,13.1%
3,COc1ccc(N/C(C)=C/C(=S)Nc2ccccc2)cc1,12.2%
4,CCCCn1c(=O)[nH]c(=O)c2c1nc(-c1ccccc1F)n2Cc1ccccc1OC,23.9%
5,Cc1cccc(C)c1OCC(=O)NCC1CCCO1 (stereo not shown),4.76%
6,CS(=O)(=O)N1CCN(C(=O)c2csc3ccccc23)CC1,11.6%
7,CCOc1ccccc1Nc1cc(C)c2cccc(C)c2n1,15.8%
8,CO[C@@]1(NC(=O)CSCC#N)C(=O)N2C(C(=O)[O-])=C(CSc3nnnn3C)CS[C@@H]21.[Na+],8.22%
9,OCCC1CN(Cc2cccc3nccnc23)CCN1C1CCCC1 (stereo not shown),3.17%
10,O=C(Nc1ccccc1F)c1ccccc1-c1ccc(C(F)(F)F)cc1,-1.07%
11,CCn1c(CCNC(=O)c2cccs2)nnc1SCC(=O)Nc1nc(-c2ccccc2)cs1,-2.24%
12,Nc1nc(N2CCN(c3ccc(F)cc3)CC2)n[nH]1,10.1%
13,O=C(NC1CCCC1)C1CCC(=O)N1CCc1ccccc1 (stereo not shown),10.9%
14,COc1ccc(N2CC(NC(=O)N(C)CCC#N)CC2=O)cc1 (stereo not shown),12.6%
15,CCOc1ccc(N2C(=O)CC(N(CCc3ccc(OC)c(OC)c3)C(=O)/C=C/C(=O)O)C2=O)cc1 (stereo not shown),9.09%
16,COc1ccccc1OCCCOc1ccc(/C=C2\SC(=O)NC2=O)cc1OC,20.1%
17,COC(=O)c1sccc1NC(=S)N1CCN(c2ccccc2F)CC1,23.5%
18,Cc1csc(NC(=O)c2nc3nccc(C)n3n2)n1,10.4%
19,CC1=C(C)C(c2ccccc2)NC(=S)N1 (stereo not shown),10.7%
20,CCOC(CNC(=O)c1ccc(CNC(=O)c2ccc(OC)c(OC)c2)cc1)OCC,8.72%

row,Structure (SMILES),"hERG current change (%, negative = inhibition) at 1uM"
1,O=C(CCC(=O)Nc1ccc(Br)cc1)N/N=C/c1cc([N+](=O)[O-])ccc1O,15%
2,O=C(COC(=O)c1c(F)cccc1F)NCc1ccc2c(c1)OCO2,6.34%
3,CS(=O)(=O)N1CCN(C(=O)C2c3ccccc3Oc3ccccc32)CC1,-4.04%
4,O=C(CSc1cccc[n+]1[O-])Nc1ccc2c(c1)OCO2,8.95%
5,COc1ccc(C(C)=O)cc1CC(=O)NCCCn1ccnc1,15.7%
6,Cc1cccc(Oc2ccc(NC(=O)c3ccccc3C(=O)O)cc2)c1C,13.7%
7,COc1cc(OC)cc(C(=O)Nc2ccc(N3CCOCC3)cc2N2CCOCC2)c1,-7.15%
8,Cc1cc(NCc2ccncc2)ccc1Br.O=C(O)C(=O)O,12.6%
9,O=C(CN1CCN(C(=O)c2ccccc2F)CC1)Nc1ccc(Br)cc1,-56.5%
10,C#CC1CN(Cc2ccccc2)CC(C#C)N1C.Cl (stereo not shown),15.1%
11,O=C(Nc1cccnc1)c1ccc(NS(=O)(=O)c2cccc([N+](=O)[O-])c2)cc1,13.9%
12,CN(C)c1nc(C(=O)NN)nc(N(C)C)n1,-0.549%
13,COc1ccccc1CNC(=O)c1ccccc1NC(=O)C1=C(C)OCCS1,10.7%
14,COc1ccccc1CN1CC(C(=O)N2CCCCO2)CCC1=O (stereo not shown),-36.3%
15,Cc1ccc(/C=C/C(=O)O)cc1S(=O)(=O)NCc1ccco1,7.73%
16,CC(C)(C)NC(=O)Cn1nnc(-c2ccccc2Cl)n1,12.4%
17,Cc1cccc(NC(=O)CN2CCN(C(=O)COc3cccc(Br)c3)CC2)c1C,-29.9%
18,COc1ccc(NC(=O)CC2(CC(=O)O)CCCC2)cn1,18.1%
19,COc1ccccc1[C@@H]1C(c2cccc(Cl)c2)=NN(c2ccc(Br)cc2)[C@H]1C(=O)N1CCOC1=O,16.5%
20,CC(=O)c1cccc(S(=O)(=O)N2CCn3cccc3C2C)c1 (stereo not shown),8.58%

row,Structure (SMILES),"hERG current change (%, negative = inhibition) at 1uM"
1,O=C(CSc1cccs1)Nc1cccc2ccccc12,5.51%
2,COCC(=O)N(c1ccccc1)C(C)C(=O)OC (stereo not shown),5.83%
3,CC1(C)NC(=O)N(CC(O)COc2cc3ccccc3cc2C(=O)N2CCCCC2)C1=O (stereo not shown),5.5%
4,COC(=O)c1ccc(CO/N=C/c2ccccc2OC)cc1,13.6%
5,CC1CCCC(NC(=S)Nc2cccc(S(=O)(=O)N(C)C)c2)C1C (stereo not shown),20.1%
6,Cc1c(Cl)cccc1NC(=S)N1CCC(C(N)=O)(N2CCCCC2)CC1,-1.12%
7,CN(C1CCS(=O)(=O)C1)S(=O)(=O)c1ccc(N2CCCC2=O)cc1 (stereo not shown),10.8%
8,Cc1ccc2nc(Nc3nc(CSc4nnnn4-c4ccccc4)cc(=O)[nH]3)nc(C)c2c1,15.2%
9,COc1ccc(/C=C/c2nnc(NC(=O)C(C)(C)C)s2)cc1,-2.85%
10,COc1ccc(Cc2nnnn2CC(=O)O)cc1,4.76%
11,O=C(NCCCN1CCN(c2ccccc2F)CC1)C1CCC(=O)N1C1CCCCC1 (stereo not shown),1.21%
12,CCC(=O)OCC(=O)Nc1ccc2c(c1)OCO2,4.12%
13,Clc1ccccc1-c1nn2c(Cn3cnc4ccccc43)nnc2s1,4.73%
14,O=C(/C=C/C=C/c1ccc2c(c1)OCO2)N1CCCCC1,9.12%
15,COc1ccccc1CNC(=O)COc1ccc(S(=O)(=O)N2CCOCC2)cc1C,9.66%
16,Cl.O=C(CCN1CCN(c2ccccc2F)CC1)c1ccc(Br)cc1,-40%
17,COc1ccc(CC(=O)OCC(=O)c2c[nH]c3ccccc23)cc1,-6.52%
18,O=C(CN1C(=O)NC2(CCCC2)C1=O)Nc1ccccc1C(F)(F)F,11.6%
